# Data published in article PMC10668032.
# This is one part of the list. At the low end of the ranking the order means little.
# Target: SIX1 homeodomain (reference allele) (UniProt Q15475)
# Experiment: universal protein binding microarray
# Conditions: Universal all-10-mer PBM (8x60K, AMADID 030236), 300 nM GST-tagged protein, Alexa Fluor 488 anti-GST; buffer, salt, pH and temperature not stated; high values mean tight binding; most listed sequences are background and not binding sites; double strand, one strand shown
row,Sequence,binding signal
1,GGATGTAA,0.134 E-score
2,AGGGCGTC,0.0124 E-score
3,CACATGCC,-0.108 E-score
4,CAGCGATG,0.0336 E-score
5,AATAGTGT,0.167 E-score
6,ACTCTAGG,-0.14 E-score
7,AGCAAACT,-0.132 E-score
8,AACACGGA,0.136 E-score
9,GATTTCTA,0.0508 E-score
10,CATGCTCA,-0.0777 E-score
11,CGACGGGC,-0.12 E-score
12,CAGCATTC,-0.0843 E-score
13,CGACTACA,-0.0719 E-score
14,ATCTCGAC,0.0336 E-score
15,CCGGACCG,-0.0242 E-score
16,CGTGGACC,-0.258 E-score
17,AACCCGCC,-0.0543 E-score
18,GGGCTTAC,-0.0473 E-score
19,GGTGTCTA,0.35 E-score
20,ACCGCGGT,0.0875 E-score
21,ATTCTGCC,-0.0369 E-score
22,CCAATCGC,-0.103 E-score

row,Sequence,binding signal
1,AAGCTACA,-0.116 E-score
2,GCGCATTA,0.0805 E-score
3,ATACGAGG,0.232 E-score
4,AAAGCTAC,-0.101 E-score
5,GAAAATAA,-0.151 E-score
6,AAAAACAC,-0.0623 E-score
7,CCAAGTTA,-0.101 E-score
8,AAGTCCCT,-0.156 E-score
9,CTCCTTAA,-0.0897 E-score
10,GAGCCCTA,-0.0819 E-score
11,ACCAAGCA,-0.0892 E-score
12,CAGGAACA,0.00716 E-score
13,GAAGACAC,0.21 E-score
14,ATATTGTC,0.105 E-score
15,AAGCCTTG,-0.201 E-score
16,ATGGAAAT,-0.161 E-score
17,ACCAACCA,0.0713 E-score
18,CTCCCTAC,0.0275 E-score
19,ACGTTGCT,-0.219 E-score
20,AGCGCTGC,-0.333 E-score
21,CCTATAAA,-0.0902 E-score
22,GAAGCAAA,-0.266 E-score

row,Sequence,binding signal
1,CGACAAAA,-0.187 E-score
2,CATACCCA,0.208 E-score
3,ACGATTGG,0.0859 E-score
4,AGGAAGTC,-0.342 E-score
5,AAGCGTCG,-0.256 E-score
6,GATTGAAA,-0.1 E-score
7,AGGGGCAC,-0.0269 E-score
8,AGTGATCA,0.313 E-score
9,ACCCTCCC,0.0969 E-score
10,CCTCAGTA,0.0464 E-score
11,TTAGCTAA,0.0337 E-score
12,CCTGATCC,0.387 E-score
13,ATTGATCA,0.123 E-score
14,CTAGGCAA,-0.176 E-score
15,GATGGGTA,0.223 E-score
16,CACAAGAA,-0.184 E-score
17,GGCACGCC,-0.172 E-score
18,AGTGGTAT,0.35 E-score
19,AATGAATC,0.0336 E-score
20,TCACTAAA,0.0184 E-score
21,TACAAGTA,0.162 E-score
22,ACCGCTAC,-0.0951 E-score

row,Sequence,binding signal
1,CCGCGCCA,-0.174 E-score
2,GACACGGA,0.196 E-score
3,AATATGAA,0.0344 E-score
4,CTGATGTA,-0.0219 E-score
5,CCGCTTAA,-0.0125 E-score
6,TAAAACCA,0.0113 E-score
7,AGAGTACG,-0.118 E-score
8,GCATAAAC,-0.0342 E-score
9,AGTAAATA,0.0217 E-score
10,CGTGCTAA,-0.238 E-score
11,CCTATTAA,0.00619 E-score
12,AGCAAGAG,-0.123 E-score
13,CGTAGATC,0.0922 E-score
14,ACGAGTGA,-0.00425 E-score
15,GGTAGACA,0.133 E-score
16,AGATAGCG,0.0754 E-score
17,CACCACTA,0.165 E-score
18,AAAAGTGG,-0.0847 E-score
19,AGTCCCTC,-0.231 E-score
20,AACCCAGC,-0.0253 E-score
21,CGGGGCAA,0.104 E-score
22,AAACGATA,0.328 E-score

row,Sequence,binding signal
1,CATTCAAG,-0.0736 E-score
2,GTGAGTGA,0.00877 E-score
3,AACAAACT,-0.237 E-score
4,GCGGGCAA,-0.128 E-score
5,GGCCGACC,-0.0654 E-score
6,CCACCACG,-0.0152 E-score
7,AGCTTACG,-0.00665 E-score
8,CGATCAGA,0.192 E-score
9,GCTTTAGA,-0.0964 E-score
10,GGGTACAA,0.00918 E-score
11,CATAAGAC,-0.0925 E-score
12,GATCGATC,0.362 E-score
13,CAAGGGTC,-0.218 E-score
14,AATTCAGG,0.0244 E-score
15,CTAGTTAC,-0.166 E-score
16,AAAGCTTG,-0.226 E-score
17,TTAAGAAA,-0.237 E-score
18,ATCAGCTC,0.283 E-score
19,AGCTTATG,-0.097 E-score
20,AGTGAGGC,-0.0151 E-score
21,GAATATAC,0.0608 E-score
